Among the data in the supplement of paper PMC9446081 are relative growth values, retold here.

Out of some 39,000 compounds screened, about 220 (0.56%) showed activity. The list shows a part of the results.
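Further: static incubation at 37 °C against the wild-type strain, values averaged over two biological replicates.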

This test relates to Escherichia coli K-12 BW25113. The experiment in a line: relative growth (OD600 normalised to plate interquartile mean) (fraction); higher = less growth inhibition, active = 0.2 or less. Particulars: 50 µM; LB; incubation time: overnight (16-24 h).
In the case of `Cc1noc(C)c1NC(=O)N(C)C[C@@H]1Oc2ccc(NS(=O)(=O)c3cn(C)cn3)cc2CC(=O)N([C@H](C)CO)C[C@@H]1C`, the relative growth was inactive: 0.987.

Consider `C[C@H]1CN([C@@H](C)CO)C(=O)c2cccc(NC(=O)Nc3ccc(F)cc3)c2O[C@@H]1CN(C)CC1CCCCC1`, for which the relative growth is inactive: 0.975.

In the case of `Cn1nnnc1SCC1=C(C(=O)[O-])N2C(=O)C(NC(=O)C(O)c3ccccc3)C2SC1.[Na+]` (configuration not stated), the relative growth was active: 0.0463.

On to `CC(C)NC(=O)N(C)C[C@H]1Oc2c(NS(=O)(=O)c3cn(C)cn3)cccc2C(=O)N([C@H](C)CO)C[C@@H]1C`, for which the relative growth was inactive: 1.01.

With `COC(=O)CC1(N)CCCCC1`, the relative growth was inactive: 1.03.

As for `C[C@@H]1CN([C@@H](C)CO)C(=O)Cc2cc(NC(=O)CCC(F)(F)F)ccc2O[C@H]1CN(C)S(=O)(=O)c1ccccc1`, the relative growth was inactive: 0.979.

Regarding `C[C@@H]1COC(=O)[C@H](Cc2ccc(F)cc2)CC=CC[C@@H](CC(=O)N[C@@H](CO)Cc2ccccc2)C(=O)N1`, the relative growth is inactive: 1.02.

As for `COc1ccc(S(=O)(=O)N2C[C@@H](O)COC[C@@H]3O[C@@H](CC(=O)NCCCN(C)C)CC[C@H]32)cc1`, the relative growth was inactive: 1.

Turning to `COc1ccc(NC(=O)Nc2ccc3c(c2)CC(=O)N([C@@H](C)CO)C[C@H](C)[C@@H](CN(C)Cc2ccc(C(F)(F)F)cc2)O3)cc1`, the relative growth is inactive: 1.03.

Turning to `Cc1noc(C)c1S(=O)(=O)Nc1ccc2c(c1)C(=O)N([C@H](C)CO)C[C@H](C)[C@H](CN(C)C(=O)Nc1ccc(F)cc1)OCCCC[C@H](C)O2`, the relative growth is inactive: 1.02.

Consider `O=C(C[C@H]1C=C[C@@H](NS(=O)(=O)c2ccccc2)[C@H](CO)O1)NCc1ccncn1`, for which the relative growth is inactive: 1.

In the case of `Cc1ccc2nc(-c3ccco3)[nH]c2c1`, the relative growth was inactive: 0.899.

As to `CO[C@@H](CN(C)C(=O)c1ccc2c(c1)OCO2)[C@@H](C)CN([C@H](C)CO)S(=O)(=O)c1ccc(C)cc1`, the relative growth was inactive: 0.995.

Regarding `C[C@@H]1CCCCO[C@H](CN(C)Cc2ccc(C(=O)O)cc2)[C@H](C)CN([C@H](C)CO)C(=O)c2cc(NS(=O)(=O)c3ccc(Cl)cc3)ccc2O1`, the relative growth was inactive: 1.01.

Take `C[C@H]1CCCCO[C@@H](CN(C)CC2CCCCC2)[C@@H](C)CN([C@@H](C)CO)C(=O)c2cc(NC(=O)CCC(F)(F)F)ccc2O1`: the relative growth is inactive: 0.996.

As for `C[C@@H]1CN([C@@H](C)CO)C(=O)c2cc(-c3cccc(C(=O)N(C)C)c3)cnc2O[C@H]1CN(C)S(=O)(=O)c1cccc(F)c1`, the relative growth is inactive: 0.995.

For `COc1cccc(-c2ccc3c(c2)O[C@H](CN(C)C(=O)C2CCC2)[C@@H](C)CN([C@H](C)CO)S3(=O)=O)c1`, the relative growth was inactive: 1.01.

`CC(C)NC(=O)N(C)C[C@@H]1Oc2c(NC(=O)C3CCOCC3)cccc2C(=O)N([C@@H](C)CO)C[C@@H]1C`: the relative growth was inactive: 1.

Turning to `COCCNC(=O)C[C@H]1CC[C@@H]2[C@H](COC[C@@H](O)CN2S(=O)(=O)c2ccccc2C)O1`, the relative growth is inactive: 1.

Turning to `C[C@@H]1CN([C@H](C)CO)C(=O)c2cc(C#CCc3ccccc3)cnc2O[C@@H]1CN(C)C(=O)C1CCOCC1`, the relative growth was inactive: 0.968.

Regarding `C[C@@H]1CN([C@H](C)CO)C(=O)c2c(c3ccccc3n2C)-c2ccccc2CO[C@H]1CN(C)Cc1ccccc1C(F)(F)F`, the relative growth is inactive: 1.06.

For the molecule `C[C@H](CO)N1C[C@H](C)[C@@H](CN(C)Cc2ccncc2)Oc2ccc(NC(=O)c3ccncc3)cc2C1=O`, the relative growth was inactive: 0.966.

For the molecule `C[C@@H]1CN([C@H](C)CO)C(=O)c2cc(NS(=O)(=O)c3cccs3)ccc2O[C@@H]1CN(C)CC1CC1`, the relative growth is inactive: 1.02.

Turning to `C[C@H]1CCCCO[C@H](CN(C)C(=O)Nc2ccc3c(c2)OCO3)[C@@H](C)CN([C@@H](C)CO)C(=O)c2cc(NC(=O)c3ccncc3)ccc2O1`, the relative growth was inactive: 0.997.

On to `COC(=O)[C@H](Cc1ccc(-n2cc(CCC(=O)NO)nn2)cc1)N1CC(/C=C/[C@@H](O)Cc2ccccc2)=C[C@@H](C2CC2)O1`, for which the relative growth is inactive: 1.

Regarding `CC(C)(C)N.CCCC(NC(C)C(=O)N1C(C(=O)O)CC2CCCCC21)C(=O)OCC` (configuration not stated), the relative growth was inactive: 0.948.

Regarding `COc1ccc(NC(=O)Nc2ccc3c(c2)CC(=O)N([C@@H](C)CO)C[C@H](C)[C@H](CN(C)Cc2ccc(-c4ccccc4)cc2)O3)cc1`, the relative growth is inactive: 0.969.

Turning to `C[C@@H]1CN([C@@H](C)CO)C(=O)c2cc(NS(=O)(=O)c3ccc(Cl)cc3)ccc2O[C@@H](C)CCCCO[C@@H]1CN(C)C(=O)Nc1ccc(C(F)(F)F)cc1`, the relative growth was inactive: 1.

On to `C[C@@H]1CN([C@H](C)CO)C(=O)c2cc(NS(=O)(=O)c3ccc(Cl)cc3)ccc2O[C@@H](C)CCCCO[C@@H]1CN(C)Cc1ccncc1`, for which the relative growth was inactive: 0.979.

As to `Cc1ccc(S(=O)(=O)Nc2ccc3c(c2)C(=O)N([C@H](C)CO)C[C@H](C)[C@H](CN(C)C(=O)Nc2ccc(C(F)(F)F)cc2)O3)cc1`, the relative growth was inactive: 0.994.

For `COc1ccc(NC(=O)N(C)C[C@H]2Oc3ccc(NC(=O)Nc4cccc5ccccc45)cc3C(=O)N([C@H](C)CO)C[C@H]2C)cc1`, the relative growth is inactive: 0.974.

As to `CN(C)CC(=O)N1CC(=O)N2[C@H](C1)[C@H](c1ccc(C#Cc3cccnc3)cc1)[C@@H]2CO`, the relative growth was inactive: 0.972.

As to `COc1ccc(CN(C)C[C@@H]2OCCCC[C@H](C)Oc3ccc(NC(=O)Cc4ccccc4)cc3C(=O)N([C@H](C)CO)C[C@@H]2C)cc1`, the relative growth is inactive: 0.996.

For `C[C@H]1CCCCO[C@@H](CN(C)Cc2ccc(C(F)(F)F)cc2)[C@@H](C)CN([C@@H](C)CO)C(=O)c2cc(NC(=O)Nc3ccc(F)cc3)ccc2O1`, the relative growth was inactive: 1.04.

For `COc1ccccc1CN1C[C@@H](C)[C@H](OC)CN(C)C(=O)c2cc(NC(=O)Nc3ccccc3OC)ccc2OC[C@H]1C`, the relative growth was inactive: 1.

As for `C[C@@H]1CCCCO[C@H](CN(C)C(=O)Nc2ccc3c(c2)OCO3)[C@H](C)CN([C@@H](C)CO)C(=O)c2cc(NC(=O)c3ccncc3)ccc2O1`, the relative growth is inactive: 1.01.

Consider `C[C@H]1CN([C@@H](C)CO)S(=O)(=O)c2ccc(-c3ccc(F)cc3)cc2O[C@@H]1CN(C)S(C)(=O)=O`, for which the relative growth was inactive: 1.02.
